Experimental data published in patent US20240425574A1, “ANTI-PDGF-B ANTIBODIES AND PHARMACEUTICAL COMPOSITION THEREOF” (Regeneron Pharmaceuticals, Inc., priority 2021, published 2024).
Marks after values point to notes of the source that are not given here.

Key:
retinal vessel pericytes = test: Retinal Vascular Development (RVD) model, pericytes; format: in vivo, mouse
Method: In analyzing the effect of anti-PDGF-B antibodies on P2 wild-type mice retinal vasculature, there was no observed effect on the pericyte coverage in anti-PDGF BB treated retinas at 3 mg/kg dosage.
To determine effect of anti-PDGF-B antibodies on retinal vasculature in P2 WT mice, the anti-PDGF-B antibodies were injected at P2; and tissue was collected at P5. All retinas were incubated with anti-NG2 antibody to detect vessel pericytes.

PDGFRa and PDGFRb = test: Flow cytometry of PDGFRa/PDGFRb surface expression in PASMC; format: cell-based, human; details: antibody:PDGF-BB 10-1 nM, 24 hours
monocrotaline rats [1] = test: Study #1, 4 weeks Monocrotaline PAH rats, preventive treatment (Example 19); format: in vivo, rat
Method: (§1) In order to evaluate the effect of two inhibitory anti-PDGF-B antibodies in the rat monocrotaline model of pulmonary arterial hypertension, 2 studies were performed: study #1 was performed on 4-week Monocrotaline PAH Rats with Preventive Drug Treatment; and study #2 was performed on 5-weeks Monocrotaline Severe PAH Rats Survival with Therapeutic Drug Treatment (Tables 26-27).
(§2) Six to seven weeks old male Sprague Dawley rats were used. Rats were separated into treatment groups such that body weights were similar among different groups. […] On day one, rats were subcutaneously administered either 40 mg/kg of monocrotaline or 5 mL/kg or saline as control. On day 28, right ventricular systolic pressure (RVSP) was measured by right heart catheterization and RV hypertrophy was calculated by Fulton index as the weight ratio of RV to (LV+septum). In study #2, rats were subcutaneously administered either 60 mg/kg of monocrotaline or 5 mL/kg of saline. […] Small molecule group was orally administered macitentan at 30 mg/kg daily. Body weight change from day 0-35 were used for general toxicity assessment and animal mortality and median survival time were calculated by day 35.
Right heart catheterization and right ventricular systolic pressure: Rats were anesthetized with isoflurane and were kept at approximately 37° C. using a heated platform (Heated Hard Pad 1, Braintree Scientific) and circulating heated water pump (T/Pump Classic, Gaymar Industries). The neck area for each rat was prepared for surgery by depilating over the right common Carotid artery and right Jugular vein. An incision was made, and the right Jugular vein was isolated with care as to not damage the carotid artery and/or the vagus nerve. A piece of 5-0 silk suture was placed under the isolated Jugular vein to allow for retraction of the vessel cranially, then a 23-gauge needle was used to introduce a hole into the Jugular vein. […] The catheter was connected to pressure/volume instrument (MPVS-300, Millar Instruments, Inc.) that measured heart rate as well as both diastolic and systolic right ventricular pressures. […] Readings were quantified from a 60 second interval of the pressure tracing (following a 2-minute period of recording to allow for pressure stabilization). The parameters analyzed were right ventricular systolic pressures (RVSP) and heart rate (HR).
Right heart hypertrophy assessment: After the in vivo hemodynamic measurements, animals were euthanized by exsanguinations under anesthesia and then RV free wall, left ventricle (LV) and septum tissue were harvested and weighted. RV hypertrophy was calculated by Fulton index as the weight ratio of RV to (LV+septum).

Monkey PDGF-BB [2] = test: HEK293/SRE-Luc/hPDGFRβ luciferase bioassay; format: cell-based; details: 500 pM mfPDGFBB
Method: (§3) In order to determine the activity of the anti PDGF-B antibodies, bioassays were performed using PDGF-BB. For performing the bioassay, 20,000 HEK293/SRE-Luc/hPDGFRβ single cell sorted cells/well were plated in 0.1% FCS Optimem overnight. […] Plates were incubated for 5.5 hours at 37° C. and luminescence was measured using One-Glo (Promega).

Mouse PDGF-BB = Mouse PDGF-BB (Mus musculus, UniProt P31240); test: HEK293/SRE-Luc/hPDGFRβ luciferase bioassay; format: cell-based; details: 600 pM mPDGFBB
Method: as §3

monocrotaline rats [3] = test: Study #2, 5 weeks Monocrotaline severe PAH rats survival (Example 19); format: in vivo, rat
Method: as §1, §2

monocrotaline rats [4] = test: 5 weeks Monocrotaline severe PAH rats survival, therapeutic treatment (Example 10 study 2); format: in vivo, rat
Method: Six to seven weeks old male Sprague Dawley rats were used. […] Standard of care group was orally administered macitentan at 30 mg/kg daily for 28 days. At day one, rats were subcutaneously administered either 40 mg/kg of monocrotaline or 5 mL/kg of saline. By the end of day 28, right ventricular systolic pressure (RVSP) was measured by right heart catheterization and RV hypertrophy was calculated by Fulton index as the weight ratio of RV and (LV+septum). In study 2, rats were subcutaneously administered either 60 mg/kg of monocrotaline or 5 mL/kg of saline. […] Body weight change from day 0-35 were used for general toxicity assessment and animal mortality was calculated by day 35.

monkey PDGF-BB [5] = test: Biacore T200/MASS-2 binding kinetics at 25° C. (Examples 8, 14); parameters: species or system Macaca fascicularis
Method: 90 nM of human and monkey PDGF-BB were prepared, and serially diluted 3-fold. The sample was injected at 25 uL/minute for 3 minutes and the dissociation was monitored for 10 minutes. The kinetics parameters were evaluated by fitting the real time data using 1:1 binding model with mass transport limitation.
The equilibrium dissociation constant (KD) for PDGF-BB binding to different PDGF-BB monoclonal antibodies (mAbs) was determined using a real-time surface plasmon resonance biosensor using a Biacore T200 or MASS-2 instrument. All binding studies were performed in 10 mM HEPES, 300 mM NaCl, and 0.05% v/v Surfactant Tween-20, pH 7.4 (HBS-P) running buffer at 25° C. The sensor chip surface was first derivatized by amine coupling with human Fc specific mouse mAb (REGN2567) to capture different PDGF-BB mAbs. […] At the end of each cycle, the PDGF-BB mAb captured surface was regenerated using a 10-12 seconds injection of 20 mM phosphoric acid.
The association rate (ka) and dissociation rate (kd) were determined by fitting the real-time binding sensorgrams to a 1:1 binding model with mass transport limitation using Scrubber 2.0c curve-fitting software. Binding dissociation equilibrium constant (KD) and dissociative half-life (t½) were calculated from the kinetic rates as: […]

[6] = MCT 40 mg/kg rats, 10 mg/kg SC twice per week, vs isotype control IgG
[7] = MCT 60 mg/kg rats, treatment from day 14, antibody SC twice per week, Macitentan 30 mg/kg daily gavage

Mouse PDGF-BB, sequence (P31240 82-190 limits assumed): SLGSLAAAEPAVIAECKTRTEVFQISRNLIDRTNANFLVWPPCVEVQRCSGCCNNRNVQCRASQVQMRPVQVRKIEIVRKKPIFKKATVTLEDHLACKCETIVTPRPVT

B1: H4H13145P: fully human anti-PDGF-B mAb, human IgG4 Fc; HCVR/LCVR SEQ ID NOs: 2/10, HC/LC 18/20 (antibody)
heavy: QVQLVQSGTEVKKPGASVKVSCKASGYTYGAYAISWVRQAPGQGLEWMGWISAYNGNTNYAQKFQDRVTMTTDTSTNTAYMELRGLKSDDTAVYFCARAWNSFDYWGQGTLVTVSSASTKGPSVFPLAPCSRSTSESTAALGCLVKDYFPEPVTVSWNSGALTSGVHTFPAVLQSSGLYSLSSVVTVPSSSLGTKTYTCNVDHKPSNTKVDKRV[human IgG4 Fc with S228P (EU numbers) left out here]
light: DIQMTQSPSSLSASVGDRVTITCQASQDIRKNLNWYQQKPGKAPKLLISDASTLETGVPSRFSGSGSGTDFTFTISSLQPEDIAKYYCQQYYNLPFTFGPGTKVDIKRTVAAPSVFIFPPSDEQLKSGTASVVCLLNNFYPREAKVQWKVDNALQSGNSQESVTEQDSKDSTYSLSSTLTLSKADYEKHKVYACEVTHQGLSSPVTKSFNRGEC
effect on retinal vessel pericytes (retinal vessel pericytes; 3 mg/kg, P2 wild-type mice): no apparent effect
effect on pericyte depletion (retinal vessel pericytes; higher dose (25 mg/kg), injected at P2, tissue at P5): moderate effect
PDGFRb cell surface fluorescent signal (PDGFRa and PDGFRb): prevented the observed loss in PDGFRb fluorescent signal
reduction of right ventricular hypertrophy (monocrotaline rats [1]; 10 mg/kg, compared to isotype control-treated rats): 36%
Right ventricular systolic pressure (RVSP) Mean ± SD (monocrotaline rats [1]; MCT 40 mg/kg rats, 10 mg/kg SC twice per week from day −1, day 28): 54.36 ± 12.87
Reduction % (RV Hypertrophy) (monocrotaline rats [1]; [6]): 36%
Reduction % (RYSP) (monocrotaline rats [1]; [6]): 38%
IC51 (Monkey PDGF-BB [2]): 3.2E−10
(%) Inhibition (Mouse PDGF-BB): 98%
Death # by day 35 (monocrotaline rats [3]; [7]): 6
Survival rate by day 35 (monocrotaline rats [3]; [7]): 50%*#
median survival (monocrotaline rats [3]; [7]): 34 days
survival (monocrotaline rats [3]; monocrotaline 60 mg/kg, antibody 25 mg/kg 2 times a week from day 14, macitentan 30 mg/kg daily, day 35): significantly prolonged the survival time and improved mortality
Mortality (monocrotaline rats [4]; high dose Monocrotaline Rat-Therapeutic, 25 mg/kg, printed as change from 91%): 91%-−>58%
animal body weight loss (monocrotaline rats [4]; monocrotaline 60 mg/kg, 25 mg/kg SC 2x/week from day 14): significantly attenuated
30 nM mfPDGF-BB Bound (RU) (monkey PDGF-BB [5]; 30 nM mfPDGF-BB over captured mAb): 73.4 RU
binding to commercial Monkey PDGF-BB (monkey PDGF-BB [5]; MASS-2): specific binding
ka (monkey PDGF-BB [5]; monkey PDGF-BB): 930000 M⁻¹ s⁻¹
kd (monkey PDGF-BB [5]; monkey PDGF-BB): 1.5e-05 s⁻¹
